# The list shows a part of the results.
# Test system: PfHDP1 homeodomain (GST-tagged)
# Test: gcPBM binding intensity (ln(normalized median fluorescence intensity)); higher = stronger DNA binding
# Procedure, shortened: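 An Agilent 4 × 180k array of primer-extended double-stranded 36-bp intergenic genomic probes, with negative controls, was incubated for 1 h with GST-tagged P. falciparum DNA-binding domains expressed in E. coli. Alexa488 anti-GST antibody detected bound protein, scanned at 488 nm. Binding intensity is the highest Masliner-normalised natural-log median intensity across replicate spots of either probe orientation.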
row,Sequence,gcPBM binding intensity (ln)
1,TAAGTTTGTCAATCAACACACACCTATTTATTATAT [CACACA_site3919],6.53
2,AAAGATATTTTTATCTCACACATATAATATATATAT [CACACA_site5478],8
3,TATTTACAGACATGCGCACACATAAATAAATAATAG [CACACA_site2411],7.5
4,GTTACTGCATACATAACACACATATTCAAAACACAT [CACACA_site3502],6.65
5,TAAAATTTAAGTTATACACACTTAAGTAACATCATC [CACACA_site6395],6.76
6,TATAGAAAATTTATATGTACATATATATATATATAT [XGTACX_site4451],9.33
7,AAATACAAGGGACATGCATACCACTATTTTTTAAAT [TGCATGCA_site588],6.28
8,TTTATATAATAGTTATGTACTTAAACGAAAGATACA [XGTACX_site8495],6.31
9,AAATGTATACACATGGTGCGTAATATATTATATATA [GTGCAC_site9877],7.85
10,CTACCAAATCTATAGACACACATATATATATATATT [CACACA_site2486],6.61
11,GAACTAATAATGAAAAGTACACATACACATATATAT [XGTACX_site6789],6.68
12,AATAAATTTCAAAATTGTACTCATTTCCTTTCCCAA [XGTACX_site5887],6.04
13,TATGATTTTTATATATGTACGTATGGTGTTTTACAA [XGTACX_site6100],6.56
14,TACGCCTATAACGGCTGTACACCTTACTTTTTTTAA [XGTACX_site6818],6.22
15,TGTGAAATAAAATTTGTACACACATATATATATATA [CACACA_site8093],9.29
16,TTCATTCAAATCCAAGCATGCTTTATTAAAAAATTA [TGCATGCA_site567],6.38
17,ATATATAATTCCCAAGTGCATTTATTTTAATTATTA,9.87
18,ATAACATACATAACAACACACAATATTTATCTGTAT [CACACA_site4279],6.61
19,TTCTTCTGTTTTATTACACACCATTTTGTGTCTACA [CACACA_site8643],7.31
20,CTCTATATATTATTATGTACTAAATGTATGTATGTA [XGTACX_site7151],6.6
21,AAAACACAATTTATTACACACATATATTATATATTA [CACACA_site1420],6.62
22,ATGAATGAATAAAGAAGTACGGAAATATTAACAAAA [XGTACX_site4695],7.01
23,TAACACACTAAGAAAAGTACTGATTAATATAATTTT [XGTACX_site5536],6.09

row,Sequence,gcPBM binding intensity (ln)
1,TTTATGAAATGTTGCACACAAAAAACAACATGTTTT [CACACA_site1440],9.63
2,ATTCCTGGACCGTTCATGCACTTGCAGAACGTCCAT,7.07
3,AAATGATATAAATTATAAAATGGATTTTTTCCATTG [CACACA_negctrl_site420],5.91
4,TTTAAAAATTAATTCTGTACACATTTTTATTATATT [XGTACX_site4212],6.64
5,AAAAAAAAAAAAAGTGCACACGATTTAAGGCCTATA [CACACA_site2823],8.86
6,ATATATATATATATATGTACACATATATTTCTTTTC [XGTACX_site3443],9.41
7,ATAAAATTTTATATGGGTACATAATATAATATATAT [XGTACX_site8160],6.64
8,CGCCTATAAGCTTAGACACACAAATAAATAAATATA [CACACA_site1264],6.14
9,TTAAAAATGTTGGAAAGTACATATTTTTTAAAAGTA [XGTACX_site802],6.25
10,TACCTAATTCGGTCCCGTACAAGTTAGTTTCAATTC [XGTACX_site2703],5.91
11,TATTGGGGGTATAAACACAGTAAGTAAATAAATAAA [CACACA_negctrl_site1680],7.02
12,TATTTTTTATAATAATGTACATATATATATATAATA [XGTACX_site2329],6.4
13,AATATCATATAAAAATGTACAAATTCTAAAACACGA [XGTACX_site1442],6.85
14,ATGTATGTGTAACATAGTACTTTTTAAAAGGATATT [XGTACX_site5328],6.6
15,TATAGATACATATACACACACACACCCACATATATA [CACACA_site3436],7.08
16,ATCAAACCTTTTAAATGTACATTCGGAGTAAAAAAA [XGTACX_site282],6.54
17,GTATTCATGCTAAAGGTGCAATAATTTTTATAATAA [GTGCAC_site9603],9.39
18,AAGATAAAATTATGTAGTACAAAAAAAAATAAAAAA [XGTACX_site139],6.61
19,GTATATTATTTACGTTTGCACTTCATTTTATAGTAA,9.08
20,TATTAATTGTGGCACCTTGTATGTTTACAATGACAT [CACACA_negctrl_site1383],6.75
21,AATGGATGAATGAATGTATGAATGAATGTATGAATG [CACACA_negctrl_site91],6.76
22,TTCTTCAAAAAAAATTGTACACATCTCTCAAATGTT [XGTACX_site2952],6.47
23,AAAAAAAAAAAAAAGAGTACACAGACGTTCAAAGGT [XGTACX_site7566],6.85

row,Sequence,gcPBM binding intensity (ln)
1,TGTATGTATTAATGCGCACACAAAAAATAACAATAT [CACACA_site1848],7.88
2,ATATATATATATAAATGTACATTGTGTGTTGTAAGA [XGTACX_site2434],8.88
3,ATAAAAAAAAAATAATGTACTTATATATATATATAT [XGTACX_site8282],9.13
4,ATATAGATATATAGTAGTACTTGTTATATAAGATAA [XGTACX_site6336],6.44
5,ACAGAGCTTTAAATACGTACATAATATATATTAAAT [XGTACX_site8221],6.51
6,TTTAAAAAATGTTATATTATATAATTAAAAAAAAAA [CACACA_negctrl_site1509],6.4
7,TATTGATTTAGAAACACACACTCGAAGATGTTTAAC [CACACA_site1129],6.36
8,TTTTGTAGTTTATAAATAAAAGAGAATATGGTGCTT [CACACA_negctrl_site413],6.52
9,TAAATATTATTTCATAGTACTTTTATTATTGATATA [XGTACX_site5566],6.21
10,TAAATAAATATATATACACACATATATATATATATA [CACACA_site598],9.3
11,ATATATATAAAACACACACACAAAAAAAATAAAGAC [CACACA_site117],7.9
12,TGATTTCCAGGTTATTGTACAAAATTAATTTTCGAA [XGTACX_site2491],6.6
13,AAAAGTTTTATTTAAATGAATTAATCTTTACTATAT [CACACA_negctrl_site282],5.87
14,CAATTTATAAAGAAAACACACATATACATATATACA [CACACA_site1260],6.36
15,TATTAAACAAATTATGCAAAAATAAATCAATATGTT [CACACA_negctrl_site171],7.09
16,TTAGGAAGCTCACAAAATAAAGTGAAAAGAAGAAAA [XGTACX_negctrl_site572],6.45
17,ATTATTTTATAATTCACACATAAATAAAAAAAAAAT [CACACA_site5290],6.2
18,AAATATACAAAATATACACACATATTTATTTATGAT [CACACA_site2051],6.53
19,TATTTTCATTTGCGCGCACACAATAATAATTTTTGG [CACACA_site3525],8.28
20,TAAAAAATATAAATGACACACACTTAAAAACAAAGA [CACACA_site671],6.83
21,TATAAATTAATGACATGTACATAAAAGTATAGATGT [XGTACX_site6534],6.66
22,AACAATTATTTATCTACACACTTTTATGTTATTTAC [CACACA_site9],6.7
23,TAATGTATATGTAAATGTACATGTATATTATTTAAA [XGTACX_site1840],6.34

row,Sequence,gcPBM binding intensity (ln)
1,AAGATATTTGTATAATGTACAAAACTATATAAAACT [XGTACX_site1433],6.47
2,ATCAAAGATAAATTTACACACATATATATATATATA [CACACA_site2969],9.28
3,AAAATTAAAATATATACACACATATATATATTAAAT [CACACA_site4419],6.25
4,TCTTCCCAAATAAAGTGTACATAAATACGAATAATA [XGTACX_site4363],6.65
5,TTAAATTTTTTTTTGTGTACGAAAAACAGAAAAAAT [XGTACX_site8625],6.6
6,ATATATATATACATATGTACATATAAAATAATTTTG [XGTACX_site3731],8.53
7,TATGTGTATGGGAATGCATGTAAATATGTACATATA [TGCATGCA_site737],7.43
8,TTGTTCCACAAAAATTTAGTCAAAAAAAAATAAAAA [TGCATGCA_negctrl_site546],6.25
9,AATGAATAACAATACTATATGATTTTTAATACATTA [XGTACX_negctrl_site42],5.87
10,ACAAAAAAAAAAATAACACACATGGGGGTGTATAAA [CACACA_site3797],6.93
11,AATACAATATAGTGAAAAATAATTAAATACAATAAG [XGTACX_negctrl_site161],6.64
12,CGTAAACAATTATGATGTACATAAAATATATATATA [XGTACX_site2705],8.39
13,TCTATTCATTTTGAAGGTACACATTTCTTTATAATA [XGTACX_site6218],6.35
14,GTATTAGATAAATACACACACAAGCATATATTTTTA [CACACA_site3431],6.56
15,AATAAATATATAAATACACACAAACATACATATATA [CACACA_site9340],6.96
16,AATATATCATTATATAAACACACAATATGTTTTTTA [CACACA_site9260],6.22
17,AAAAATATATATATATATATATATATAAGGAATATA [XGTACX_negctrl_site450],7.35
18,AAAACACATACTATATGTACATATAATAATTTATAT [XGTACX_site4525],6.47
19,AAGAAAAAAAAAAAAAAAAAAAAAAAAAAAAAAAAA [TGCATGCA_negctrl_site263],6.24
20,TTCTGTATATAGTGTGCACACAATTAAAAAAAAAAA [CACACA_site8400],10.8

# Reference: the supplement of paper PMC11417369
